Experimental data as given in PMC4336329 (PLoS ONE, 2015).
Screen size: about 310,000 compounds; about 14,000 (4.5%) showed an effect of 50% or more. The effect is printed as a negative number. The list shows a part of the results.

Target: human ether-à-go-go-related gene (hERG) potassium channel (human, UniProt Q12809)
Assay: primary screen, population patch clamp on CHO cells stably expressing hERG
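Note: peak tail current of the secondary pulse compared with the same well before compound.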

Sequence of human ether-à-go-go-related gene (hERG) potassium channel (Q12809 whole entry, looked up): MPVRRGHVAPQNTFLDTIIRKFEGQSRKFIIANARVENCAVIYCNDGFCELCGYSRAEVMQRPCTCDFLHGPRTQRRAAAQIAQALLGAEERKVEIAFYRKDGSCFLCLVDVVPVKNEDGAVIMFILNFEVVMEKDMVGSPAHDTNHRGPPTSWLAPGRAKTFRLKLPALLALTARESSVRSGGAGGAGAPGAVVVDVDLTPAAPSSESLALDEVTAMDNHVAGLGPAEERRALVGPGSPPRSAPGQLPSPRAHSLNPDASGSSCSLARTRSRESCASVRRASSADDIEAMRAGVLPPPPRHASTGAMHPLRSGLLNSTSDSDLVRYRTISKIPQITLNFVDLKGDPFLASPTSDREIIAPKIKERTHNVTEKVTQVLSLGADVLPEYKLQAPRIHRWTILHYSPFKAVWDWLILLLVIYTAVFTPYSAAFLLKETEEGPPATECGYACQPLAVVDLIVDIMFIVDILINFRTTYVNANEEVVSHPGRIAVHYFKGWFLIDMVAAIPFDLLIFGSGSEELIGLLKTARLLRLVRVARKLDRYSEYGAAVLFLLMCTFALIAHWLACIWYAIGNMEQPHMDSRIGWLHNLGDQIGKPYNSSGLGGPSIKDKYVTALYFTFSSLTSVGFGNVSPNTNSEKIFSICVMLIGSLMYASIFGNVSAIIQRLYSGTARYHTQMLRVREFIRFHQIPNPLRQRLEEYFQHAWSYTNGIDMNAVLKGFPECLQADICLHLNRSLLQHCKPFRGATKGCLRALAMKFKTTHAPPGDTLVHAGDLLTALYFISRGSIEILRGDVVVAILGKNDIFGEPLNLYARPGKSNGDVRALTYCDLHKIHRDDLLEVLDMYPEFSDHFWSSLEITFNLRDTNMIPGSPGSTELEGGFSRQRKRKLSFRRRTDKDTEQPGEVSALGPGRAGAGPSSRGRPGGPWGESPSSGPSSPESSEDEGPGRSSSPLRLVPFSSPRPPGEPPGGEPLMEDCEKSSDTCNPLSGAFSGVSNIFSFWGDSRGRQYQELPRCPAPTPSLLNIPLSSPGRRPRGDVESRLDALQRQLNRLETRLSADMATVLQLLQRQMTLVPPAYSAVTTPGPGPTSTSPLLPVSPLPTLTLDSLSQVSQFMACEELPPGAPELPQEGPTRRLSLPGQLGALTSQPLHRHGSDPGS

First: Cc1ccc(NC(=O)CNC(=O)c2ccc(Oc3ccccc3)cc2)nc1
Second: COc1ccc(/C=C(/NC(=O)c2ccccc2)C(=O)N/N=C/c2ccncc2)cc1
The “hERG current change (%, negative = inhibition) at 10uM” value of the first is lower: 4.34% for the first, 9.78% for the second.

First: O=C(Nc1cccnc1)c1ccc([N+](=O)[O-])s1
Second: O=C(Nc1cccnc1)c1ccc(Cl)c(S(=O)(=O)N2CCCCCC2)c1
The “hERG current change (%, negative = inhibition) at 10uM” value of the first is higher: -20.1% for the first, -31.6% for the second.

Going from `COc1cc(C(=O)NCC2CCCO2)cc(OC)c1OC` (centres unmarked) to `N#C/C(=C\c1cccc([N+](=O)[O-])c1)C(=O)NCC1CCCO1` (centres unmarked), the “hERG current change (%, negative = inhibition) at 10uM” value falls from 16.8% to -2.61%.

Compared with `NC(=O)CN(C/C=C/c1ccccc1)C/C=C/c1ccccc1`, `N/C(=N\OC(=O)C(c1ccccc1)c1ccccc1)c1ccncc1` is lower in “hERG current change (%, negative = inhibition) at 10uM” value: 20.6% for the first, -26.5% for the second.

Compared with `CCC(C)[C@H](NC(=O)C1CC(=O)N(c2ccc3c(c2)OCO3)C1)C(=O)NC1CCCCC1` (some centres unmarked), `COC(=O)c1[nH]c2ccc(Br)cc2c1NC(=O)C(C)N1CCN(C2CCCCC2)CC1` (centres unmarked) is lower in “hERG current change (%, negative = inhibition) at 10uM” value: 29% for the first, -78.2% for the second.

Going from `CCN(CC)C(=O)CSc1nc2[nH]ncc2c(=O)[nH]1` to `CCSc1nc2c(c(=O)[nH]1)C(c1ccncc1)C(C(=O)OC(C)C)=C(C)N2` (centres unmarked), the “hERG current change (%, negative = inhibition) at 10uM” value rises from 1.09% to 6.44%.

Compared with `CO/N=C/c1cccn1-c1nccc(OC)c1C#N`, `COc1ccc(C(=O)Nc2cccc3cccnc23)cc1OC` is lower in “hERG current change (%, negative = inhibition) at 10uM” value: 19.1% for the first, 2.81% for the second.

Compared with `CCOC(=O)c1ccccc1NC(=O)CN1C(=O)NC(C)(CCc2ccccc2)C1=O` (centres unmarked), `COC(=O)c1ccccc1NC(=O)COc1ccccc1[N+](=O)[O-]` is higher in “hERG current change (%, negative = inhibition) at 10uM” value: -33.2% for the first, 3.55% for the second.

First: CCOC(=O)N1CCN(c2ccc(C(F)(F)F)cn2)CC1
Second: CCOC(=O)N1CCN(C(=O)c2cc(COc3cccc(C(F)(F)F)c3)on2)CC1
The “hERG current change (%, negative = inhibition) at 10uM” value of the first is higher: -4.3% for the first, -76.7% for the second.

Compared with `CCCN(Cc1nc2cc(Cl)ccc2c(=O)[nH]1)C(=O)c1ccc(S(=O)(=O)N2CCCC2)cc1`, `O=C(CCc1nc2ccccc2c(=O)[nH]1)OCc1ccc(Cl)cc1Cl` is higher in “hERG current change (%, negative = inhibition) at 10uM” value: -39.2% for the first, 2.87% for the second.

Going from `CCN(CC)CC.CCOc1ccccc1-n1c(=S)sc2c(=O)n(-c3ccccc3)c(=S)[nH]c21` to `Cc1ccc(C)c(OCC(=O)Nc2c(C)n(C)n(-c3ccccc3)c2=O)c1`, the “hERG current change (%, negative = inhibition) at 10uM” value falls from 26.5% to 3.41%.

First: CCOC(=O)c1sc(NC(=O)c2ccco2)nc1C
Second: Cc1cccc(C)c1OCCNC(=O)C(=O)NCc1ccco1
The “hERG current change (%, negative = inhibition) at 10uM” value of the first is higher: 13.3% for the first, 9.93% for the second.

Compared with `O=C(O)c1csc(-c2ccccc2)n1`, `CCOC(=O)c1c(-c2ccccc2)csc1NC(=O)CSc1nncs1` is lower in “hERG current change (%, negative = inhibition) at 10uM” value: 6.74% for the first, -3.32% for the second.

Going from `COc1ccc(C(=O)OCC(=O)NCCCc2ccccc2)cc1[N+](=O)[O-]` to `CCCCNc1cc(C(=O)O)cc(S(N)(=O)=O)c1Oc1ccccc1`, the “hERG current change (%, negative = inhibition) at 10uM” value rises from -17.2% to -7.67%.

Going from `CCN(CC(=O)Nc1ccc(NC(C)=O)cc1)CC(=O)Nc1ccc(F)c(Cl)c1` to `O=C(CCNc1ccc(F)c(Cl)c1)c1ccco1`, the “hERG current change (%, negative = inhibition) at 10uM” value falls from -2.92% to -3.88%.

Compared with `Cc1ccc(-n2ncc(C(=O)Nc3cc(Cl)ccc3Cl)c2C2CCNCC2)cc1.Cl`, `Cc1ccc(O)c(C(=O)c2cnn(C(=O)COc3ccc(Cl)cc3)c2)c1` is higher in “hERG current change (%, negative = inhibition) at 10uM” value: -62% for the first, -0.932% for the second.

Going from `Cc1c(Cl)cccc1NC(=O)Cc1cccs1` to `O=C(Cc1cccs1)Nc1cccc(-c2ccc3nncn3n2)c1`, the “hERG current change (%, negative = inhibition) at 10uM” value falls from 15% to -28.4%.

Going from `CCCCn1nc(NC(=O)CCC)c2cc3cc(OC)ccc3nc21` to `COc1ccc2nc(SCC(=O)N3CCCCC3)c(C#N)cc2c1`, the “hERG current change (%, negative = inhibition) at 10uM” value rises from -3.42% to -2.33%.

Compared with `Cc1ccc(C(=O)N2CCCC(N3CCN(c4ccccc4C)CC3)C2)c(=O)[nH]1` (centres unmarked), `COc1ccccc1C(=O)N1CCN(c2ccccn2)CC1` is lower in “hERG current change (%, negative = inhibition) at 10uM” value: -18.1% for the first, -22.8% for the second.

First: CC(C)/C=C/CN1CCN(CCCc2ccccc2)C(CCO)C1 (centres unmarked)
Second: Cc1c(N=Cc2c(O)n(CCc3ccc(F)cc3)c(=O)[nH]c2=O)c(=O)n(-c2ccccc2)n1C
The “hERG current change (%, negative = inhibition) at 10uM” value of the first is lower: -73.4% for the first, -61.9% for the second.

Compared with `O=C(c1ccco1)N1CCCN(Cc2cn[nH]c2-c2ccc(-c3ccccc3)cc2)CC1`, `O=S(=O)(NC1c2cccc3cccc(c23)C1N1CCNCC1)c1ccccc1` (centres unmarked) is higher in “hERG current change (%, negative = inhibition) at 10uM” value: -59.3% for the first, -27.2% for the second.

First: CC(C)(C)NC(=O)C(c1ccc(F)cc1)N(C(=O)CCC(=O)Nc1ccccn1)C1CCCC1 (centres unmarked)
Second: Cc1cccc(N(C(=O)CNC(=O)c2ccco2)C(C(=O)NC2CCCC2)c2cccnc2)c1 (centres unmarked)
The “hERG current change (%, negative = inhibition) at 10uM” value of the first is lower: -9.2% for the first, 3.99% for the second.

Compared with `Cc1ccc(-c2nc3[nH]c(=O)cc(NC(=O)c4cccs4)n3n2)cc1`, `CC(NC(=O)c1cccs1)c1ccc(Cl)cc1` (centres unmarked) is lower in “hERG current change (%, negative = inhibition) at 10uM” value: -6.07% for the first, -36.1% for the second.

Going from `CCOC(=O)Cn1nc(/C=C/c2ccc(C)cc2)ccc1=O` to `Cc1ccc(C(=O)c2c3ccc(C(F)(F)F)cc3nn2CCC(N)=O)cc1`, the “hERG current change (%, negative = inhibition) at 10uM” value falls from 5.68% to -5.81%.

First: COc1cc(C(=O)NCCN2C(=O)S/C(=C\c3ccc(F)cc3)C2=O)ccc1OCC(=O)N1CCOCC1
Second: CCc1ccc(NC2CC(=O)N(CCc3ccc(OC)c(OC)c3)C2=O)cc1 (centres unmarked)
The “hERG current change (%, negative = inhibition) at 10uM” value of the first is higher: 2.84% for the first, -13.4% for the second.

First: Cc1c(C(c2cccc(Br)c2)c2c(C)n(C)n(-c3ccccc3)c2=O)c(=O)n(-c2ccccc2)n1C.Cl
Second: CC(=O)Cc1cc(O)c2ccccc2c1OC(=O)c1ccc(Br)cc1
The “hERG current change (%, negative = inhibition) at 10uM” value of the first is higher: -1.15% for the first, -4.46% for the second.

Compared with `O=C(C1=C(O)C(=O)N(Cc2ccco2)C1c1cccc(O)c1)c1ccco1` (centres unmarked), `CCOc1ccc(C(=O)N(CN2CCCC2=O)c2ccccc2)cc1` is lower in “hERG current change (%, negative = inhibition) at 10uM” value: 12.8% for the first, 6.89% for the second.

Going from `O=C(NC1CCCCC1)[C@@H]1CC=C[C@@H]2CCN(C3CCCCC3)C(=O)[C@@H]21` to `N/C(=N\OC(=O)CCC1CCCCC1)c1ccc([N+](=O)[O-])cc1`, the “hERG current change (%, negative = inhibition) at 10uM” value falls from 3.97% to -8.1%.

First: NS(=O)(=O)c1ccc(CNC(=O)C(Cc2ccccc2)NS(=O)(=O)c2ccccc2F)cc1 (centres unmarked)
Second: CN(C)S(=O)(=O)c1cccc(COC(=O)Cc2c(F)cccc2Cl)c1
The “hERG current change (%, negative = inhibition) at 10uM” value of the first is higher: 9.99% for the first, 9.75% for the second.

Compared with `Cc1ccc(S(=O)(=O)N/N=C/c2ccc(OS(=O)(=O)c3ccc(C)c([N+](=O)[O-])c3)cc2)cc1`, `Cc1[nH]c(C(=O)N/N=C/c2ccc(C(=O)O)cc2)c(C)c1C(=O)N/N=C/c1ccc(C(=O)O)cc1` is lower in “hERG current change (%, negative = inhibition) at 10uM” value: 7.76% for the first, -15.7% for the second.

First: COCCNC(=O)c1cc2c(=O)n3cccc(C)c3nc2n1C
Second: Cc1ccc2[nH]cc(CCNC(=O)CN3C(=O)c4ccccc4C3=O)c2c1
The “hERG current change (%, negative = inhibition) at 10uM” value of the first is higher: 11.7% for the first, -26.1% for the second.

Going from `CCSc1nnc(NS(=O)(=O)c2ccc(OC)cc2)s1` to `CCc1ccc(Oc2cc(C)nc(N)n2)cc1`, the “hERG current change (%, negative = inhibition) at 10uM” value falls from 13.4% to -1.75%.

First: FC(F)(F)c1cc(Cl)c2nnc(-c3cccnc3)n2c1
Second: CCn1c(CSc2nnc(-c3ccncc3)n2C)nc2cc(C(=O)O)ccc21
The “hERG current change (%, negative = inhibition) at 10uM” value of the first is lower: 9.97% for the first, 16.5% for the second.

First: Cc1ccc(N(C(=O)c2ccc(S(=O)(=O)N3CCOCC3)cc2)C2C=CS(=O)(=O)C2)cc1 (centres unmarked)
Second: CCCCn1c(N)c(N(CC)C(=O)c2ccc3c(c2)S(=O)(=O)c2ccccc2C3=O)c(=O)[nH]c1=O
The “hERG current change (%, negative = inhibition) at 10uM” value of the first is lower: 3.58% for the first, 8.41% for the second.

Compared with `COc1cc(CNc2ccc3c(c2)CCC3)cc(OC)c1O`, `COc1ccc2nc3c(nc2c1)CCCC3` is lower in “hERG current change (%, negative = inhibition) at 10uM” value: 12.2% for the first, 0.0196% for the second.

Going from `Nn1cnc2c([nH]c3ccccc32)c1=O` to `O=C(O)c1oc2ccc(Br)cc2c1-n1cccc1`, the “hERG current change (%, negative = inhibition) at 10uM” value rises from -0.0281% to 13.4%.

First: Clc1cccc(C2CCN(Cc3nc(COc4ccccc4)no3)C2)c1 (centres unmarked)
Second: O=C(Nc1ccc(Br)cc1)C1CC(O)CN1C(=O)OCc1ccccc1 (centres unmarked)
The “hERG current change (%, negative = inhibition) at 10uM” value of the first is lower: -40.7% for the first, 1.39% for the second.

First: C/C(=N\NC(=O)c1nn(C)cc1Br)c1ccncc1
Second: CC(=O)c1cc(C#N)c(N2CCN(c3ccccc3)CC2)nc1C
The “hERG current change (%, negative = inhibition) at 10uM” value of the first is lower: -0.642% for the first, 7.12% for the second.

First: CC(C)CN(C(=O)COC(=O)Cc1c[nH]c2ccccc12)C1CCS(=O)(=O)C1 (centres unmarked)
Second: CCOC(=O)c1cc(NC(=O)/C=C\C(=O)O)ccc1Cl
The “hERG current change (%, negative = inhibition) at 10uM” value of the first is higher: 13.6% for the first, 7.2% for the second.

First: O=[N+]([O-])c1ccc(N2CCCC2)cc1N1CCCC1
Second: C/C(CC(=O)Nc1cccc(Cl)c1Cl)=N\NC(=O)C(=O)N1CCCC1
The “hERG current change (%, negative = inhibition) at 10uM” value of the first is lower: 1.62% for the first, 3.99% for the second.

Going from `Cc1cc(C)cc(NC(=O)C2(c3ccccc3)CC2(Cl)Cl)c1` (centres unmarked) to `COc1ccc(NC2=C(C(C)=O)C(c3ccc(OC)cc3)C(C(C)=O)C(C)(O)C2)cc1` (centres unmarked), the “hERG current change (%, negative = inhibition) at 10uM” value rises from -9.57% to 24.3%.

First: Cc1cc2oc(=O)cc(CN3CCN(S(=O)(=O)c4cccs4)CC3)c2cc1C
Second: Cc1cc(C)c(S(=O)(=O)N2CCOC2CNC(=O)C(=O)NCCCn2ccnc2)c(C)c1 (centres unmarked)
The “hERG current change (%, negative = inhibition) at 10uM” value of the first is higher: -5.34% for the first, -8.31% for the second.

First: O=C(NC1CC2CCC1C2)c1ccco1 (centres unmarked)
Second: O=C(CNc1cccc(C(F)(F)F)c1)N/N=C/C1CCCCC1
The “hERG current change (%, negative = inhibition) at 10uM” value of the first is lower: -5.69% for the first, 21.5% for the second.
